{"source": "PubChem BioAssay AID995", "about": "(National Center for Advancing Translational Sciences (NCATS), 2007)", "note": "Among all 72,000 compounds or so, about 710 (0.99%) were called active. Inconclusive results, whose numbers are uncertain, are shown with a selection of clear calls. Calls follow the shape of the dose curve; as a rule, active = well fitted inhibition curve with a large enough effect; inconclusive = small, poorly fitted or top-dose-only effect; inactive = no such curve, though single readings can be large or run the other way. Potencies of inconclusive entries are left out as doubtful fits. % is scaled to controls: 0 for no effect and ±100 for the full control effect; potency is read from the fitted curve at half-maximal effect; tags tell the direction and shape of the fitted curve."}
{"test": "qHTS Assay for Inhibitors of the ERK Signaling Pathway using a Homogeneous Screening Assay; also: nearly all actives have a fitted effect of over 55% in size", "conditions": "HEK293-V1b, vasopressin-stimulated pERK AlphaScreen; activity, negative = inhibition: at 57.5 µM (top of the series) unless noted", "source_text": "qHTS Assay for Inhibitors of the ERK Signaling Pathway using a Homogeneous Screening Assay\nNIH Chemical Genomics Center [NCGC]\nNIH Molecular Libraries Screening Centers Network [MLSCN]\nAssay Submitter (PI): Dr. Wei Zheng, NCGC/NIH\nThe Ras/extracellular-signal-regulated kinase (ERK) mitogen activated protein (MAP) kinase signaling pathway (ERK1/2 cascade) plays is a key role in transmitting signals from the cell surface to the nucleus (Nishida and Gotoh 1993; Chang and Karin, 2001). The cascade is initiated by the small G-protein Ras, which recruits Raf […], where activation occurs. Alternatively, this pathway can be activated by elevating intracellular cAMP.\nActivation of the ERK pathway is essential in increased cell division and cell survival. Sustained and constitutive activation of the ERK pathway, however, has been linked to uncontrolled cell proliferation, increased cell survival, and tumor progression. Thus, the ERK has been as an attractive target for cancer chemotherapy in the past few years (Sebolt-Leopold and Herrera, 2004). Given its physiological and pathological importance, assessment of ERK phosphorylation has been broadly performed in both basic research and drug discovery. Most assays for the measurement of ERK phosphorylation use the antibody-based detection methods, such as western blot and ELISA. These assays require multiple reagent additions with cell wash steps and are not suitable for high throughout screening.\nThe current cell-based ERK phosphorylation assay was performed using AlphaScreen platform. AlphaScreen is a two bead-based proximity-dependent chemical energy transfer luminescent assay platform. The assay reagents (ERK SureFire(TM) kit) were supplied from TGR BioSciences (Australia). In the presence of specific antibodies, phosphorylated ERK will bring \"donor\" and \"acceptor\" beads to a proximity range (<200 nm), and subsequently lead a chemical luminescent reaction upon exciting donor beads with 680 nm laser. To exclude the assay-related false positives, we used a biotinylated rabbit IgG to perform counter-screen. The biotinylated antibody mimics the phosphorylated ERK1/2 for bringing streptavidin coated beads and protein-A coated beads to a proximity range for the AlphaScreen detection.\nNCGC Assay Protocol Summary:\nHEK293 cells stably expressing type-1 vasopressin receptor (V1b) were maintained in DMEM medium (Invitrogen, Carlsbad, CA) at 37C under a humidified atmosphere containing 5% CO2 and 95% air. The medium contained 10% FBS, 2 mM L-glutamine, non-essential amino acid, pyruvate and 50 U/ml penicillin and 50 ug/ml streptomycin (Invitrogen). The aliquots of frozen cells were stored at -135C and used for the compound screening. All compounds were screened as titrations from 0.6 nM to 46 uM final concentration. Vasopressin was used to stimulate the ERK phosphorylation pathway. The ERK phosphorylation in cells was determined using an AlphaScreen assay kit provided by PerkinElmer. Data were normalized to the controls for basal activity (DMSO only) and 100% activation (25 nM vasopressin). AC50 values were determined from concentration-response data modeled with the standard Hill equation.\n(1) Seed 4 ul/well of resuspended frozen HEK293 cells containing 2000 cells in white 1536-well plates for overnight with 1% FBS at 37C under a humidified atmosphere containing 5% CO2 and 95% air.\n(2) Add 23 nL compounds in DMSO solution. The final titration was 0.6 nM to 46 uM.\n(3) Incubate at 37C for 30 min.\n(4) Dispense 0.5uL vasopressin (25 nM in final)\n(5) Incubate at 37C for 5 min.\n(6) Dispense 0.5uL of 1:2 diluted 5x lysis buffer.\n(7) Incubate at 37C for 10 min.\n(8) Dispense 1.5uL of mixture of activation buffer and reaction buffer with AlphaScreen beads (streptavidin donor beads and protein-A acceptor beads, 10 ng/well for each).\n(9) Incubate at room temperature for 5 hr.\n(10) Detect the assay plate in an EnVision plate reader (PerkinElmer) using the AlphaScreen detection mode.\n[…]"}
{"smiles": "CCOc1ccc(CNc2ccc(N3CCCC3)cc2)cc1", "Potency": "inconclusive [inhibitor, partial curve]"}
{"smiles": "Cc1cccc(N(CC(=O)NCc2ccc3c(c2)OCO3)C(=O)CCC(=O)Nc2ccccn2)c1C", "Potency": "inconclusive [inhibitor, partial curve]"}
{"smiles": "COC(=O)c1cc(NCc2ccccc2F)ccc1N1CCOCC1", "Potency": "inconclusive [inhibitor, partial curve, poor fit]"}
{"smiles": "COC(=O)c1[nH]c2cc(OC)ccc2c1NC(=O)CCN1CCN(c2cccc(C)c2C)CC1", "Potency": "inconclusive [inhibitor, single point]"}
{"smiles": "COc1ccccc1-c1nccc(-n2ccnc2)n1", "activity, negative = inhibition": "inactive: 7.79%"}
{"smiles": "CCC(=O)Oc1cccc(C(=O)Nc2ccc(-c3nnc(-c4ccco4)o3)cc2)c1", "Potency": "inconclusive [inhibitor, full curve]"}
{"smiles": "O=C(c1csnn1)N1CCC2(CCCN(Cc3cc(C(F)(F)F)cc(C(F)(F)F)c3)C2)CC1", "activity, negative = inhibition": "inactive: 10.8%"}
{"smiles": "Cc1oc2c(c1C(=O)NC(Cc1c[nH]c3ccccc13)C(=O)O)CCCC2", "note": "(stereo not drawn)", "Potency": "inconclusive [inhibitor, full curve]"}
{"smiles": "O=c1cnc2cnc(N3CCOCC3)nc2n1CCc1ccccc1", "activity, negative = inhibition": "inactive: -9.43%"}
{"smiles": "C=C1C2CC[C@@]3(C)C(c4ccoc4)OC(=O)C[C@@]13OC1CC(O)C(C)(C)C(CC(=O)OC)[C@@]12C", "note": "(stereo partly drawn)", "Potency": "inconclusive [inhibitor, single point]"}
{"smiles": "S=C(Nc1ccc2cn[nH]c2c1)Nc1ccc2cn[nH]c2c1", "activity, negative = inhibition": "inactive: 3.12% [at 11.5 µM]"}
{"smiles": "O=C(Nc1cccc(F)c1)N1CC2(CCN(C(=O)c3cccc(F)c3)CC2)C1", "activity, negative = inhibition": "inactive: 15.5%"}
{"smiles": "Brc1ccc(OCCn2ccnc2)cc1", "Potency": "inconclusive [inhibitor, partial curve, poor fit]"}
{"smiles": "Cc1onc(-c2c(F)cccc2Cl)c1C(=O)NCCCN1CCOCC1", "activity, negative = inhibition": "inactive: -1.75%"}
{"smiles": "CN(C)c1ncnc2ccc(-c3cccnc3)cc12", "Potency": "inconclusive [inhibitor, partial curve]"}
{"smiles": "CS(=O)(=O)N1CCc2cc(S(=O)(=O)Nc3ccc4oc5c(c4c3)CCCC5)ccc21", "Potency": "inconclusive [inhibitor, partial curve]"}
{"smiles": "CC(C)(C)NC(=O)C1CC(=O)OC12CCCCC2", "note": "(stereo not drawn)", "Potency": "inconclusive [inhibitor, single point]"}
{"smiles": "O=C(c1ccc2c(=O)n(Cc3ccco3)c(=S)[nH]c2c1)N1CCN(c2ccccc2)CC1", "Potency": "inconclusive [inhibitor, partial curve]"}
{"smiles": "COC(=O)C1=C(C)NC(C)=C(C(=O)OC)C1c1cc2ccc(C)cc2[nH]c1=O", "activity, negative = inhibition": "inactive: 23.3%"}
{"smiles": "CCN(Cc1ccccc1)C(=O)c1ccccc1C", "Potency": "inconclusive [inhibitor, full curve, poor fit]"}
{"smiles": "Cn1c(C(=O)NCCC2=CCCCC2)cc2c(=O)n3ccccc3nc21", "activity, negative = inhibition": "inactive: 7.01%"}
{"smiles": "COc1ccc(CNC(=O)c2cc3c(=O)n4ccccc4nc3n(Cc3ccco3)c2=N)cc1", "activity, negative = inhibition": "inactive: -9.07%"}
{"smiles": "CC1(CCc2ccc3c(c2)OCO3)NC(=O)c2ccccc2N1", "note": "(stereo not drawn)", "Potency": "inconclusive [inhibitor, partial curve, poor fit]"}
{"smiles": "Cn1c(=O)n(Cc2ccco2)c(=N)c2c3c(sc21)CCC3", "Potency": "inconclusive [inhibitor, partial curve]"}
{"smiles": "COc1ccc(-c2nc(CSCC(=O)N3CCN(C4CCCCC4)CC3)c(C)o2)cc1OC", "Potency": "inconclusive [inhibitor, partial curve]"}
{"smiles": "CCN(CC)C(=O)c1sc2nc(-c3ccncc3)[nH]c(=O)c2c1C", "activity, negative = inhibition": "inactive: 13.1%"}
{"smiles": "O=C(NCc1ccco1)c1ccc2c(=O)n(CC3CCCO3)c(=S)[nH]c2c1", "note": "(stereo not drawn)", "Potency": "inconclusive [inhibitor, partial curve]"}
{"smiles": "O=c1[nH]c(=S)c2[nH]c(=O)n(-c3ccccc3)c2[nH]1", "activity, negative = inhibition": "inactive: -14.5% [at 11.5 µM]"}
{"smiles": "N#Cc1cccc(NC(=O)N2CC[C@@]3(CCCN(C(=O)c4cccc(F)c4)C3)C2)c1", "Potency": "inconclusive [inhibitor, partial curve]"}
{"smiles": "CCN1C(=O)c2cccc3c(S(=O)(=O)Nc4ccccn4)ccc1c23", "activity, negative = inhibition": "inactive: -17.4%"}
{"smiles": "O=C1CC(Nc2ccccc2)C(=O)N1c1ccc(N2CCOCC2)cc1", "note": "(stereo not drawn)", "activity, negative = inhibition": "inactive: -4.38%"}
{"smiles": "O=c1c(-c2ccccc2)nc2cncnc2n1-c1ccccc1", "Potency": "inconclusive [inhibitor, full curve, poor fit]"}
{"smiles": "O=c1c(CCc2ccccc2)nc2cnc(N3CCNCC3)nc2n1CCc1ccccc1", "Potency": "inconclusive [inhibitor, single point]"}
{"smiles": "O=C1C(Cl)=C(N2CCOCC2)C(=O)N1c1cccc(Cl)c1", "Potency": "inconclusive [inhibitor, single point]"}
{"smiles": "COc1ccccc1-c1nccc(NCc2cccs2)n1", "Potency": "inconclusive [inhibitor, single point]"}
{"smiles": "CSc1nc(N2CCOCC2)c2c3c(sc2n1)CCCC3", "Potency": "inconclusive [inhibitor, single point]"}
{"smiles": "CN1CC2=Cc3ccccc3OC23Oc2ccccc2C=C3C1", "Potency": "inconclusive [inhibitor, full curve, poor fit]"}
{"smiles": "O=C(c1cc(-c2ccc3c(c2)OCO3)on1)N1CCN(c2ccccc2)CC1", "Potency": "inconclusive [inhibitor, partial curve]"}
{"smiles": "O=C1NC(c2cccs2)Nc2sc3c(c21)CCCC3", "note": "(stereo not drawn)", "Potency": "inconclusive [inhibitor, single point]"}
{"smiles": "Cn1c(-n2c(CCCN3C(=O)c4ccccc4C3=O)nc3ccccc3c2=O)nc2ccccc21", "Potency": "inconclusive [inhibitor, partial curve, poor fit]"}
{"smiles": "O=C(Nc1ccc2nc3n(c(=O)c2c1)CCCCC3)c1ccccn1", "Potency": "inconclusive [inhibitor, single point]"}
{"smiles": "CSc1ncnc2c1ncn2[C@@H]1O[C@@H](CO)[C@H](O)O[C@@H]1O", "activity, negative = inhibition": "inactive: 12.3% [at 11.5 µM]"}
{"smiles": "COc1cccc(-c2cncnc2NCc2ccccc2OC)c1", "Potency": "inconclusive [inhibitor, partial curve]"}
